Source: PubChem BioAssay AID1508624 (National Center for Advancing Translational Sciences (NCATS), 2021)
Out of some 48,000 compounds screened, about 120 (0.25%) were called active. About 4% were inconclusive and are not listed. The call rests on the fitted dose curve; in most records, active means well fitted activation curve with a large enough effect; inconclusive means small, poorly fitted or top-dose-only effect, or another doubt; inactive means no such curve, though single readings can be large or run the other way. This is one part of the list.

Test: Primary qHTS for Identification of Small Molecule Activators of Huntingtin-Antisense Promoter Activity; further: nearly all actives have a fitted effect of over 55% in size
Conditions: HEK293 HTT-AS promoter firefly luciferase reporter, 24 h; series mostly up to 57.5 µM; activity change, positive = activation: at the top concentration
How it was run: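 Firefly luciferase signal from promoter-reporter HEK293 cells was scaled between vehicle (0%) and zero RLU (-100%). Compounds were tested at final concentrations of up to 57.5 uM over 24 h at 37 degrees C. PTC124 at 50 uM final served as control inhibitor.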

Activity change, positive = activation, inactive:
Cc1ccc(N(C)C(=O)C2CCN(S(=O)(=O)c3cn(C)cn3)CC2)cc1 -4.59%
CCn1c(=O)c2sccc2n2c(CCC(=O)Nc3ccc(C(C)C)cc3)nnc12 -12%
COc1ccc(OCC(=O)NC(Cc2c[nH]c3ccccc23)C(=O)O)cc1 (centres undefined) 3.03%
CC1(COc2ccc(CC3SC(=O)NC3=O)cc2)CCCCC1 (centres undefined) 14.1%
CCc1nnc(SC(CC)C(=O)Nc2cc(C)ccc2C)c2cc3occc3n12 (centres undefined) -11.3%
COc1cc(C2c3c(oc4ccccc4c3=O)C(=O)N2Cc2ccc(C)cc2)ccc1O (centres undefined) 18%
CC1CCN(CCCNC(=O)CN2C(=O)CSc3ccc(S(=O)(=O)N4CCOCC4)cc32)CC1 -6.23%
Cc1ccc(CNC(=O)CCc2nc3cccnc3n2Cc2ccccc2)cc1 8.9%
CC(=O)Nc1ccc(NC(=O)C(NS(=O)(=O)c2ccc(Br)s2)c2ccccc2)cc1 (centres undefined) -19.6%
COc1cc(NC(=O)Cn2nnnc2-c2ccccc2F)cc(OC)c1OC -4.11%
Cc1ccc(Cn2cc(S(=O)(=O)c3ccc(Cl)cc3)c(=O)c3cc4c(cc32)OCO4)cc1 3.97%
CCOc1ccc2nc(N(Cc3cccnc3)C(C)=O)sc2c1 22.8%
O=C1CC(=O)Nc2cc(S(=O)(=O)Nc3ccc(F)cc3Cl)ccc2N1 -0.691%
Cc1ccc(OCCSc2nc3ccc(NC(=O)c4ccco4)cc3s2)cc1 -19.2%
CN(c1ncccc1CNc1nc(Nc2ccc3c(c2)CC(=O)N3)ncc1C(F)(F)F)S(C)(=O)=O -45.1%
CC(=O)N1CCc2cc(S(=O)(=O)NC(Cc3ccccc3)C(=O)NCc3ccccc3Cl)ccc21 (centres undefined) 7.33%
O=C(CCNS(=O)(=O)c1ccc2c(c1)CCN2C(=O)C1CC1)N1CCN(c2cccc(C(F)(F)F)c2)CC1 -48.9%
CCCc1ccc(OC(C)c2nc(-c3ccc(-n4cccc4)cc3)no2)cc1 (centres undefined) -20.9%
COCc1oc2ccc(NS(=O)(=O)c3ccc(C)cc3)cc2c1C(=O)OC -35.1%
Cc1cccc2c(=O)cc(CSc3ccccc3NC(=O)C(C)(C)C)[nH]c12 -13.9%
COc1ccc(OCc2ccc(-c3nc(C#N)c(NCc4cccnc4)o3)o2)cc1 -24.3%
CCOC(=O)c1cc(S(=O)(=O)NCc2ccc(OC)cc2)[nH]n1 -17.3%
CCCC(=O)Nc1ccccc1C(=O)OCc1cc(=O)n2nc(C(C)C)sc2n1 -8.96%
CCC(=O)N1CCCc2cc(S(=O)(=O)N3CCC(C(=O)Nc4ccc(C#N)cc4)CC3)ccc21 -9.08%
CC(=O)c1cccc(NC(=O)Cn2cc(C(=O)c3cccc(Cl)c3)c(=O)c3ccc(C)nc32)c1 -23.5%
COc1ccc(OC)c(S(=O)(=O)N2CCN(Cc3nc4ccc(C)cc4o3)CC2)c1 -6.34%
CCN(C(=O)Cn1c(=O)n(Cc2ccc3c(c2)OCO3)c(=O)c2ccc(C(=O)NC3CCCCC3)cc21)c1cccc(C)c1 -23.7%
Cc1cc(C)cc(NC(=O)N2CCN(C(=O)c3nsc4ccccc34)CC2)c1 -18.7%
COC(=O)c1ccc(-n2c(/C=C/c3cc(OC)c(OC)c(OC)c3)nc3cc(Cl)ccc3c2=O)cc1 -12.6%
COc1ccc(N2CCN(CCCNC(=O)c3ccc4nc(Cc5ccccc5)oc4c3)CC2)cc1 -26.2%
CCOc1ccc(CNC(=O)C2CCCN(c3nn4cc(-c5ccc(F)cc5)nc4s3)C2)cc1 (centres undefined) -62.3%
COc1ccc(-n2c(=O)c3c(c4cc(OC)ccc4n3C)n(CC(=O)N3CCCC3)c2=O)cc1 -8.84%
CCc1ccc(NC(=O)CCCc2nnc3n(CCCOC)c(=O)c4sccc4n23)cc1 0.483%
Cc1ccc(NC(=O)C(C)Sc2nc3c(c(=O)[nH]2)CCCC3)cc1Cl (centres undefined) -8.72%
CSc1cccc(NC(=O)CN2C(=O)CCc3cc(S(=O)(=O)N4CCCCC4)ccc32)c1 -38.9%
CCOc1ccccc1NC(=O)CSc1ccc2nc(-c3ccccc3)cn2n1 -74.7%
CCOc1ccc(/C=C/c2nc(C#N)c(NCCCN(C)C)o2)cc1 -15.7%
CCc1ccc2oc(-c3ccc(NC(=O)c4cccc(Cl)c4Cl)cc3)nc2c1 -7.18%
O=C(Cn1cnc2c(nc3n2CCCCC3)c1=O)Nc1cccc(C(F)(F)F)c1 -9.11%
COC(=O)c1ccccc1NC(=O)Cn1c(=O)n(CCCC(=O)NCc2ccccc2Cl)c(=O)c2ccccc21 -6.8%
O=C(COc1ccccc1Cl)N(Cc1cccc(F)c1)C1CCS(=O)(=O)C1 (centres undefined) -12.2%
CCOC(=O)C1CCN(C(=O)CSc2n[nH]c(-c3ccc(OC)cc3)n2)CC1 -4.81%
Cn1c(=O)n(C)c2cc(N3CCOCC3)c(NS(=O)(=O)c3ccc(Cl)cc3)cc21 -13.3%
Cc1ccc(-n2c(=O)c3c(cnn3C)n(CC(=O)Nc3cccc(C)c3)c2=O)cc1 -5.21%
COc1ccccc1N1CCN(C(=O)c2cc3c(-c4ccccc4F)nn(C)c3s2)CC1 -38%
Cc1cc(=O)n(Cc2c(F)cccc2Cl)c2c1c(C)nn2C -22%
CCOC(=O)Cn1c(CN2CCN(c3ccc(OC)cc3)CC2)nc2c1c(=O)[nH]c(=O)n2C -7.09%
COc1ccc(CCNC(=O)Cn2c(-c3ccc(F)cc3)cc(C(C)=O)c2C)cc1OC -24.2%
COc1ccc2c(c1)CC(C(=O)NCCc1ccc(S(N)(=O)=O)cc1)CO2 (centres undefined) -9.05%
Cc1ccc(C)c(OC(=O)CSc2nnc(-c3cccs3)o2)c1 -4.04%
COc1cc2ccccc2cc1C(=O)N1CCN(c2nc3c(F)cc(F)cc3s2)CC1 -27.4%
CCCC(=O)Nc1cc(-c2nnc3c4ccccc4c(C)nn23)ccc1C 1.29%
CC1=C(C(=O)Nc2cccnc2)C(c2ccccc2Cl)n2nc(-c3ccccc3)nc2N1 (centres undefined) -12.4%
Cc1cc(NC(=O)CSc2ncc(C(=O)Nc3ccc(C)c(C)c3)c(=O)n2C)no1 11%
Cc1ccc(NC(=O)CCSc2nc(-c3ccc4c(c3)OCO4)cc(C(F)(F)F)n2)c(C)c1 -8.1%
CCOc1ccccc1C(=O)NCc1ccc2c(c1)CCN2C(=O)c1ccccc1 -41%
CS(=O)(=O)c1ncc(Cl)c(C(=O)Nc2c(C(=O)c3ccc(Cl)cc3)oc3ccccc23)n1 -24.3%
COc1ccc(CCNC(=O)c2ccc(Cn3c(SCC(=O)NCCC(C)C)nc4cc5c(cc4c3=O)OCO5)cc2)cc1OC -9.71%
Clc1cccc(-n2ncc3c(NCCCN4CCOCC4)ncnc32)c1 2.79%
Cc1ccc2nc(CN3CCN(S(=O)(=O)c4ccc(C)c(C)c4)CC3)oc2c1 -5.44%
O=C(Nc1ccc2oc(-c3ccc4ccccc4c3)nc2c1)c1cc(Cl)ccc1Cl -24.3%
CC(=O)c1c(C)n(-c2ccc(C)cc2)c2ccc(OC(=O)COc3ccccc3)cc12 -32.5%
Cc1ccc(C2CC(=O)n3nc(-c4cccc(C)c4)nc3S2)cc1 (centres undefined) 0.55%
CN(C)c1ccc(CNC(=O)C2CCN(S(=O)(=O)c3ccc4[nH]c(=O)ccc4c3)CC2)cc1 -10.1%
CC(C)C(=O)Nc1nnc(SCc2cc(=O)n3ccccc3n2)s1 -15.1%
COc1cc(-c2ccno2)ccc1S(=O)(=O)N1CCN(c2ccccc2)CC1 -19.8%
Cc1ccc(Cc2nc3ccccc3nc2SCC(=O)NCc2ccccc2Cl)cc1 -7.86%
CCOC(=O)c1c(NC(=O)COc2ccc(C(C)(C)C)cc2)sc2c1CCCC2 3.11%
CCc1cccc(CC)c1NC(=O)Cn1nnc2sc3c(c2c1=O)CCCC3 -17.5%
Cc1ccc(NC(=O)c2c(C)nn(-c3ccccc3)c2-n2cccc2)c(Cl)c1 -21.9%
CCOc1cccc(C(=O)N(Cc2ccc(F)cc2)Cc2ccco2)c1 -34.4%
Cc1ccc(N2C(=O)CCSC23C(=O)N(Cc2ccc(F)cc2)c2ccccc23)cc1 (centres undefined) -50.5%
Cc1ccc(N2C(=O)CS(=O)(=O)C23C(=O)N(Cc2ccc(Cl)cc2)c2ccccc23)cc1C (centres undefined) -21.3%
COCCn1c(SCC(=O)c2ccc(F)cc2)nc2cc(C(=O)NC3CCCC3)ccc2c1=O 3.44%
COc1ccc(Cl)cc1NC(=O)C1CCN(S(=O)(=O)c2ccc(F)cc2)CC1 -27.9%
COc1ccc(C(=O)N(c2ccc(C)cc2)S(=O)(=O)c2ccc(C)cc2)cc1 -28.8%
O=C1CC(c2ccc(F)cc2F)c2cc3c(cc2N1)OCO3 (centres undefined) -4.34%
COc1ccc(OC)c(NC(=O)Cn2c(=O)n(-c3ccc(Cl)cc3)c(=O)c3c(C)c(C)sc32)c1 12.9%
CC1CCN(C(=O)CSc2nnc(NC(=O)Nc3ccccc3)s2)CC1 -33.3%
Cc1ccc2c(c1)N(C(=O)CCC(=O)NCc1cccs1)CC(C)O2 (centres undefined) 2.41%
COC(=O)c1ccccc1NC(=O)Cn1c(CCC(=O)O)ccc1-c1ccc(C)cc1 -15.7%
Cc1cccc(CC(=O)Nc2c(C(=O)Nc3cccc(F)c3)oc3ccccc23)c1 10.6%
CCOC(=O)C1CCN(C(=O)Cn2ncc3c4ccccc4n(Cc4ccccc4)c3c2=O)CC1 -19.7%
CCOC(=O)c1c(C)[nH]c(C)c1S(=O)(=O)N(C)CC(=O)N1CCN(c2cccc(Cl)c2)CC1 -27.1%
Cn1c(=O)c2c(nc(N3CCOCC3)n2Cc2ccccc2)n(C)c1=O -2.18%
Cc1cccc(C)c1NC(=O)Cn1cc(S(=O)(=O)Cc2ccc(F)cc2)c2ccccc21 -25.4%
COc1ccc(C(=O)Nc2nnc(SCc3cc(=O)n4cc(Cl)ccc4n3)s2)cc1 17.3%
Cc1ccc(C(=O)c2cn(Cc3c(F)cccc3Cl)c3nc(C)ccc3c2=O)cc1 -22.7%
CCNc1sc(S(C)(=O)=O)nc1S(=O)(=O)c1ccc(C)cc1 -21.7%
Cc1ccc(Cn2c(=O)n(Cc3ccccc3Cl)c(=O)c3cccnc32)cc1 -14.2%
Clc1cccc(-n2ncc3c(N4CCCCCC4)ncnc32)c1 -37.5%
Cn1c(=O)n(C)c2cc(N3CCCC3)c(NC(=O)Nc3ccccc3)cc21 3.7%
Cc1cc(C(=O)N2CCN(c3cc(Cl)ccc3C)CC2)c2c(C)nn(-c3ccccc3)c2n1 -23.1%
CCc1ccc(NC(=O)CCNC(=O)Cn2cnc3ccccc3c2=O)cc1 8.76% [at 11.5 µM, percent change from vehicle, -100% = no light]
